# Assay results from PubChem BioAssay AID504333 (National Center for Advancing Translational Sciences (NCATS), 2011).
# Screen size: about 360,000 compounds; about 16,000 (4.4%) were called active. The shares of active, inactive and inconclusive entries below differ from those in the screen. Calls come from the whole dose curve; as a rule, active = well fitted inhibition curve with a large enough effect; inconclusive = small, poorly fitted or top-dose-only effect; inactive = no such curve, though single readings can be large or run the other way. A potency beside an inconclusive call is a rough fit, not a confirmed value.
# Target: Bromodomain adjacent to zinc finger domain protein 2B (Homo sapiens) (UniProt Q9UIF8)
# Chain of UniProt Q9UIF8 (Q9UIF8 whole entry, looked up, the tested form may be a part): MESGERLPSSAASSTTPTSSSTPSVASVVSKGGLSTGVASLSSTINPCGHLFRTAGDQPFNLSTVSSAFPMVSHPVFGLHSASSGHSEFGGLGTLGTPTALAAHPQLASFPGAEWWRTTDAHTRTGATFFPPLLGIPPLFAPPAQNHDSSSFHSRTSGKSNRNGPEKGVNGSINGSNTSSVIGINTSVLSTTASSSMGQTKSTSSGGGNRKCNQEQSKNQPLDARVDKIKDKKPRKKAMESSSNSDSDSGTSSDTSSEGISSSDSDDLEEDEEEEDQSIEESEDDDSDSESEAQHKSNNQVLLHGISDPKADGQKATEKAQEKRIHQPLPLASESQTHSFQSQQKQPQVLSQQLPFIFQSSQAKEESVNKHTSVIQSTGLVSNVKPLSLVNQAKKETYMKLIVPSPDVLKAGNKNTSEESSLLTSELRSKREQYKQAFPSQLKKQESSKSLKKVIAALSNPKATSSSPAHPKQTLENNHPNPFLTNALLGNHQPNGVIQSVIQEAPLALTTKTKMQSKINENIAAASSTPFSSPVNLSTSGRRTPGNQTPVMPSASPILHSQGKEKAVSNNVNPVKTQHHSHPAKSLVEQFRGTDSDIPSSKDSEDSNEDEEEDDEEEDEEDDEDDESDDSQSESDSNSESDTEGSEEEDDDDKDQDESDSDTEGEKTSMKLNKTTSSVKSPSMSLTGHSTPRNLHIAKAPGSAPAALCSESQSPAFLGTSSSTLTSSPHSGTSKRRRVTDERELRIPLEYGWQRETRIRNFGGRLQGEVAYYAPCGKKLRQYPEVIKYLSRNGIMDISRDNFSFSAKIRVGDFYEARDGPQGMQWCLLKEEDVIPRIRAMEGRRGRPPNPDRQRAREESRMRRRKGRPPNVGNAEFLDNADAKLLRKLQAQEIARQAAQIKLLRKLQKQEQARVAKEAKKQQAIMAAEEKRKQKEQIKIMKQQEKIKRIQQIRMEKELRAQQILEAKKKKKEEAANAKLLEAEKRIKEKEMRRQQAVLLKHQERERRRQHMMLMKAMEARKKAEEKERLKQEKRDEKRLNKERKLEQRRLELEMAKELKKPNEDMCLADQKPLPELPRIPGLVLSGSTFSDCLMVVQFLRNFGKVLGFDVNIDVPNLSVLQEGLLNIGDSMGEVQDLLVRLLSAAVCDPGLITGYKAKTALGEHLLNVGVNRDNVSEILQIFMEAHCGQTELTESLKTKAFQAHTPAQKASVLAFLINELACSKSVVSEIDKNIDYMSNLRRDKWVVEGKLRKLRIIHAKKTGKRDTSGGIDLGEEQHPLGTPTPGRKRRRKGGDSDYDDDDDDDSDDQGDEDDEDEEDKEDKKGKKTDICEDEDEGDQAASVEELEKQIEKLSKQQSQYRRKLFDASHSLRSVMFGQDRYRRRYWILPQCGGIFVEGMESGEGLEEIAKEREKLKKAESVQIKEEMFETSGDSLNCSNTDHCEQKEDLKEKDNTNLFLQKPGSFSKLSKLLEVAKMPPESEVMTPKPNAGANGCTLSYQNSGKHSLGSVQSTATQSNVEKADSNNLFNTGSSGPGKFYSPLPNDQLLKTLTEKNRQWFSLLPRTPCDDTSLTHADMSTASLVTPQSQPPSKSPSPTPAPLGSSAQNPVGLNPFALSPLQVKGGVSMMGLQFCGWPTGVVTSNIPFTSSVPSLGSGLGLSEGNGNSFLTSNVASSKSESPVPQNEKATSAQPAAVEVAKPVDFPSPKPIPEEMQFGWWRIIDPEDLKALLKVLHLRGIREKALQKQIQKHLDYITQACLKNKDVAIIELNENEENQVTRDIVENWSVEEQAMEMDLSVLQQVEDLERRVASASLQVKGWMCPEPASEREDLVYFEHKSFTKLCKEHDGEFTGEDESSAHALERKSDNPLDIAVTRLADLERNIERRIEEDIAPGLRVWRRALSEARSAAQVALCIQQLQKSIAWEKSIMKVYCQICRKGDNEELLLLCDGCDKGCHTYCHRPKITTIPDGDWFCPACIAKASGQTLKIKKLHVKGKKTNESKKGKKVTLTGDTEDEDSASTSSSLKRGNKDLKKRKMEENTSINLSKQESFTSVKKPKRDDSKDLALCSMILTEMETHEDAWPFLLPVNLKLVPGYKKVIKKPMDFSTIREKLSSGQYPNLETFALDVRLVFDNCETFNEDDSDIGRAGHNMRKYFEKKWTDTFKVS
# Assay: qHTS Assay for Inhibitors of BAZ2B; note: nearly all actives have a fitted effect of over 60% in size
# Conditions: AlphaScreen BAZ2B-H3K14Ac peptide displacement; series mostly up to 114 µM
# Source text: BAZ2B (bromodomain adjacent to zinc finger domain, 2B) belongs to a family of ubiquitously expressed bromodomain containing proteins, which biological function has not yet been elucidated. […] The interaction of BAZ2B with ISWI mediated by the BAZ1 motif has recently been described. […] The protocol is based on the AlphaScreen (PerkinElmer) displacement assay developed by NCGC [5], but uses the peptide ligand Biot-H3K14Ac, a high affinity binding partner for BAZ2B, in an AlphaScreen format. Although AlphaScreen has significant advantages with its utility in a variety of epigenetic target assays, the primary screening data provided in this deposition should be used with caution due to the prevalence of screening artifacts. The top compound concentration tested was 110uM in this assay, which increases number of actives and potential artifacts. An AlphaScreen counterscreen is highly recommended to be run against any putative actives to eliminate non-specific artifacts. Alternatively, one can use other AlphaScreen assays in PubChem to filter out promiscuous hits. Eberharter, A. et al. ACF1 improves the effectiveness of nucleosome mobilization by ISWI through PHD-histone contacts. The EMBO journal 23, 4029-4039. 2004. PMID: 15457208 [2] Jones, M.H. et al. A novel family of bromodomain genes. Genomics 63, 40-45. 2000. PMID: 10662543 [3] Yasgar, et al. Compound Management for Quantitative High-Throughput Screening. JALA. 2008 Apr;13(2):79-89. PMID: 18496600 [4] Inglese, et al. Quantitative high-throughput screening: a titration-based approach that efficiently identifies biological activities in large chemical libraries. Proc Natl Acad Sci. 1;103(31):11473-8. 2006. PMID: 16864780 [5] Quinn et al. A chemiluminescence-based method for identification of histone lysine methyltransferase inhibitors. Mol Biosyst 6(5): 782-8. 2010. PMID: 20567762 [6] Baell,Holloway. New substructure filters for removal of pan assay interference compounds (PAINS) from screening libraries and for their exclusion in bioassays. J Med Chem. 53(7):2719-40. 2010. PMID: 20131845 NIH Molecular Libraries Probe Production Network [MLPCN] NIH Chemical Genomics Center [NCGC] Structural Genomics Consortium (SGC) NIH Grant: 5U54 MH084681-02
# To each well of a 1,536w plate, 2ul of BAZ2B protein (final 50nM) and 1ul biotinylated histone peptide acetylated at Lys14 [b-H3(5-23)K14Ac] (final 50nM) were added in 1x PBS buffer, pH 7.4, containing 0.01% Tween-20, using a nanoliter dispenser. Formation of a protein-peptide complex proceeded at room temperature for 30 min. A Kalypsys pin-tool was employed to transfer 23 nL of library compound solution in DMSO to each well. Following a 30 min incubation of the protein-peptide complex with compounds at room temperature, a mixture of 40 ug/mL each streptavidin-coated donor and nickel chelate acceptor AlphaScreen beads (final 10 ug/mL) were added in a 1ul dispense for a final volume of 4ul. A brief centrifugation followed (1000rpm, 1 min) and were then incubated protected from the light for 20 min at room temperature. Plates were read on an EnVision multilabel plate reader using the 1,536 plate HTS AlphaScreen aperture (excitation time 80 ms, measurement time 240 ms).
# Potency is the fitted concentration of half-maximal effect; tags give direction and shape of the fitted curve.
row,Structure (SMILES),Potency
1,O=C(O)Cn1cc(/C=c2/sc3nc4ccccc4n3c2=O)c2ccccc21,"inconclusive: 89.1 µM [inhibitor, single point]"
2,CC(C)(C)CC(C)(C)c1ccc(OCC(=O)N/N=C/c2ccc(S(=O)(=O)O)o2)cc1,"inconclusive: 89.1 µM [inhibitor, single point]"
3,CCc1nnc(NS(=O)(=O)c2ccc(N/C=C(\C=O)c3nc4cc(Cl)ccc4o3)cc2)s1,"inconclusive: 50.1 µM [inhibitor, partial curve]"
4,CC(c1ccccc1)N1C(=O)c2ccc(C(=O)Nc3ccccc3C(=O)O)cc2C1=O (configuration not stated),"inconclusive: 79.4 µM [inhibitor, single point]"
5,CCCCCCc1c(C)c2ccc(OCC(=O)N[C@@H](Cc3ccccc3)C(=O)O)cc2oc1=O,"inconclusive: 89.1 µM [inhibitor, single point]"
6,Cc1ccc(S(=O)(=O)Oc2ccc(/C=C3/C(=N)N4C(=NC3=O)SN=C4S(C)(=O)=O)cc2)cc1,"inconclusive: 79.4 µM [inhibitor, single point]"
7,Cc1c(CC(=O)O)c(=O)oc2c(C)c3occ(-c4ccc(Br)cc4)c3cc12,"inconclusive: 70.8 µM [inhibitor, partial curve]"
